# Reference: paper PMC4336329 (PLoS ONE, 2015)
# In all, about 310,000 compounds went through this assay and about 14,000 (4.5%) showed an effect of 50% or more. Effects have a minus sign here. The list shows a part of the results.
# Biological target: human ether-à-go-go-related gene (hERG) potassium channel (human, UniProt Q12809)
# Experiment: primary screen, population patch clamp on CHO cells stably expressing hERG
# 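Further: peak tail current of the secondary pulse compared with the same well before compound.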
# human ether-à-go-go-related gene (hERG) potassium channel, sequence (Q12809 whole entry, looked up): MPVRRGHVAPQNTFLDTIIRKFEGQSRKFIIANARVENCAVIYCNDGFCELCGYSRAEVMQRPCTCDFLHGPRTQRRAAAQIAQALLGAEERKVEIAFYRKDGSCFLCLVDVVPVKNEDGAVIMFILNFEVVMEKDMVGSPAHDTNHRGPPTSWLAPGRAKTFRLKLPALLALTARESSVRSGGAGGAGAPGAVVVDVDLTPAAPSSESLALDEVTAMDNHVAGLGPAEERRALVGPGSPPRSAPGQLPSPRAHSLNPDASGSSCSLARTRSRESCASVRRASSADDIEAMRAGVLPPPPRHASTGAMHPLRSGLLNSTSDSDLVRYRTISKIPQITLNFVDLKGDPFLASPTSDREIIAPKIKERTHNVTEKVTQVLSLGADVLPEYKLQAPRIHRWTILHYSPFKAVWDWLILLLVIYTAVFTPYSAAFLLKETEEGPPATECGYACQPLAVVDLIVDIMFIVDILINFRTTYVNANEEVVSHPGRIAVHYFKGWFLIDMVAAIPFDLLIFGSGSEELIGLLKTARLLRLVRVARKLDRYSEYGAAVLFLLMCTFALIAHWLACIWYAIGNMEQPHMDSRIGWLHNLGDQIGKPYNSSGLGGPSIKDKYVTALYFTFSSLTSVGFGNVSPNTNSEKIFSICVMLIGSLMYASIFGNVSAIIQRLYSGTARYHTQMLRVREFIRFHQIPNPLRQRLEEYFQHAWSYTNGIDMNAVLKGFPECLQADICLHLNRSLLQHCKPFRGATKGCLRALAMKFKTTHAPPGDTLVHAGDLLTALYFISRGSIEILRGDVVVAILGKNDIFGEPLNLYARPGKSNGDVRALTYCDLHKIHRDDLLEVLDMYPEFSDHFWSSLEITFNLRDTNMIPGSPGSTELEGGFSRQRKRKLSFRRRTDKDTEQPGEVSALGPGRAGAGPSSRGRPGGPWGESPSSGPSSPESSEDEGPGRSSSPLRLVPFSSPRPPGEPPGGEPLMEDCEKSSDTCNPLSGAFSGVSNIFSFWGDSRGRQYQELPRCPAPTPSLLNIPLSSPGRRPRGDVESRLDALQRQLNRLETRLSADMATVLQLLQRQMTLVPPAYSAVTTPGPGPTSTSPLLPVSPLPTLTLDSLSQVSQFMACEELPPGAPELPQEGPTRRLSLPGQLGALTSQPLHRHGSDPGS
row,Compound,"hERG current change (%, negative = inhibition) at 10uM"
1,CN1CCN(C(=S)Nc2ccc(Oc3ccccc3)cc2)CC1,-11.6%
2,O=C(N/N=C/c1cccs1)C1COc2ccccc2O1 (stereo not drawn),-5.17%
3,O=[N+]([O-])c1cccnc1N1CCCNCC1,-30.4%
4,O=C(NCc1ccccc1)C1=C[C@H](c2coc3ccccc3c2=O)C[C@H](OCCCCO)O1,-55.4%
5,CCOC(=O)CN1N=C(c2ccc(Cl)cc2)CCC1=O,-26.8%
6,COc1cc(-c2cc(N)n(S(=O)(=O)c3ccc(F)cc3)n2)cc(OC)c1OC,-24.8%
7,CCN(Cc1ccccc1)C(=O)COC(=O)c1n[nH]c2ccccc12,0.426%
8,O=C(CCc1ccccc1)Nc1nc2c(F)cc(F)cc2s1,7.91%
9,O=C(c1ccc2c3c(cccc13)CC2)C1CCCN(CC2CC2)C1 (stereo not drawn),-46.3%
10,COc1ccc([C@H]2CC(=O)C=C(c3cccc(OC)c3OC)C2)cc1OC,-30%
11,O=C(CNC(=O)c1ccc(Br)o1)NCc1ccc(Cl)cc1Cl,-8.98%
12,COc1nccc(Nc2ccccc2)c1C#N,-7.83%
13,Cc1c(CCC(=O)NC2CC2)c(=O)oc2cc(O)ccc12,1.97%
14,CCOc1ccc(Oc2ccc(S(=O)(=O)N3CCOCC3)cc2N)cc1,-19.4%
15,CCn1c(CNC(=O)c2ccco2)nnc1SCC(=O)Nc1cc(C(F)(F)F)ccc1Cl,-31.6%
16,Cc1cccc(OC(C)C(=O)Nc2cc(S(=O)(=O)N3CCCCC3)ccc2C)c1 (stereo not drawn),-12.9%
17,COC(=O)c1c(NC(=O)CCN2CCOCC2)sc2c1CCCC2,-26%
18,Cc1ccc(C)c2nc(SCC(=O)N3CCCc4ccccc43)c(C#N)cc12,2.14%
19,COCCNC(=O)c1ccc2c3n(nc2c1)-c1ccc(C)cc1CO3,-14.8%

row,Compound,"hERG current change (%, negative = inhibition) at 10uM"
1,S=C(NCc1ccc(Cl)cc1Cl)NC1CCCCC1,24.2%
2,CCC(C(=O)N1CCN(C(=O)c2ccco2)CC1)n1sc2ccccc2c1=O (stereo not drawn),-26%
3,CC(C)CC(=O)Nc1ccccc1Oc1ccccc1,-2.96%
4,CCOc1cccc(-c2cc(C(=O)NN)[nH]n2)c1,9.76%
5,COc1ccc(N2CCN(S(=O)(=O)CCNC(=O)C3CC(=O)N(c4ccccc4)C3)CC2)cc1 (stereo not drawn),22.6%
6,COC(=O)c1ccc(S(=O)(=O)N(CCO)Cc2ccccc2)n1C,6.18%
7,CCC1(CC)N=C(c2ccccc2)C(=S)N1,10.2%
8,COc1ccc(Cl)cc1C(=O)NCCCN1CCOCC1,9.16%
9,NC(=O)C1CCN(CC(=O)Nc2nc(-c3ccccc3)cs2)CC1,-0.413%
10,Cn1ncc(Oc2ccc([N+](=O)[O-])cc2)c(Cl)c1=O,-71.2%
11,O=C(Nc1cccc(F)c1)C1CCCN(S(=O)(=O)c2cccc3cccnc23)C1 (stereo not drawn),19.7%
12,Cc1cccc(N2CC(C(=O)Nc3nnc(SCc4cccnc4)s3)CC2=O)c1 (stereo not drawn),-4.03%
13,CN(C)S(=O)(=O)N1CCC(Oc2cccc(C(=O)N3CCSCC3)c2)CC1,13.6%
14,CCCCC[C@H](O)/C=C/[C@H]1CCC(=O)[C@@H]1CCCCCCC(=O)N1CCCCC1CO (stereo partly drawn),4.91%
15,O=C(CCN1C(=O)/C(=C/c2cccc(Br)c2)SC1=S)NNC(=O)c1cccnc1,6.24%
16,Cc1sc2ncnc(N3CCC(C(=O)Nc4cc(Cl)ccc4Cl)CC3)c2c1C,4.42%
17,O=S(=O)(c1ccc(-c2ccon2)s1)N1CCN(c2ccncc2)CC1,-13.5%
18,CCOC(=O)N1CCN(C(=O)c2ccc(N(Cc3ccc(C)cc3)S(C)(=O)=O)cc2)CC1,-31.3%
19,CSc1nc(C)c(Cl)c(C)c1C#N,-4.89%

row,Compound,"hERG current change (%, negative = inhibition) at 10uM"
1,COc1ccc(NCc2nnc(SCC#N)n2-c2ccccc2OC)cc1,-8.62%
2,NC(=O)C1CCN(C(=O)c2ccc(Oc3cc(Cl)cc(Cl)c3)o2)CC1,-18.1%
3,N#C/C(=N/O)c1nc(-c2ccc(F)cc2)cs1,12.5%
4,Cc1ccccc1NC(=O)CSc1nnc(-c2ccco2)c(-c2ccco2)n1,-53.9%
5,COc1cc2c(cc1OC)CN(C(=O)c1cc(Cl)nc(Cl)c1)CC2,12.1%
6,CCCSCCCNC(=O)c1cc2c(s1)CS(=O)(=O)C2,-7.85%
7,Cc1ccccc1C(=O)Nn1c(C)ccc1C,12.2%
8,CC1=C(C(=O)OCC(C)C)C23C(=O)c4ccccc4C2(O1)OC(N)=C3C#N (stereo not drawn),-9.24%
9,CCOc1ccc(NC(=O)c2cc(C)nc3ccccc23)cc1,2.33%
10,COc1ccc(CCn2c(C)c(C(C)=O)c3cc(OC(=O)c4ccco4)ccc32)cc1OC,4.27%
11,Cc1cccc(C(=O)Nc2nnc(Cc3ccccc3)s2)c1,14.7%
12,O=C1CSC(=S)N1c1cccc(Cl)c1,14.1%
13,O=C(O)/C=C/c1cn(Cc2ccccc2)nc1-c1ccccc1,1.89%
14,CCOC(=O)[C@H]1[C@H]2COc3cc(OC)ccc3[C@@H]2N2C(=O)c3cc(F)ccc3NC(=O)[C@@]12C,-5.97%
15,COC(=O)c1cnn(-c2ccc(Cl)cc2)c1/C=N/NC(N)=S,7.44%
16,Cc1ccc(C(=O)Nc2ccc(C(=O)NCC3CCCO3)cc2)cc1 (stereo not drawn),24.7%
17,CCC(C)N(C(=O)c1csnn1)C(C(=O)NCc1ccc(F)cc1)c1ccccc1F (stereo not drawn),-3.97%
18,CCNC(=O)OCCC12CC3CC(CC(C3)C1)C2,-7.36%
19,Cc1ccc(N2CC(C(=O)N/N=C/c3cccc([N+](=O)[O-])c3)CC2=O)cc1 (stereo not drawn),-22.2%
